Experimental data as given in PMC2683827, “GSK-3β phosphorylation of functionally distinct tau isoforms has differential, but mild effects” (Molecular Neurodegeneration, 2009).

Molecular target: the molecule itself
Assay: right angle laser light scattering + thioflavine S fluorescence + transmission electron microscopy of induced polymerization; self-polymerization into filaments induced by arachidonic acid (ARA, 0-150 μM; 75 μM for the phosphorylated isoforms and for TEM); 2 μM tau, 10 mM Hepes pH 7.64, 100 mM NaCl, 0.1 mM EDTA, 5 mM DTT, 3.75% ethanol, 18 hours at 23°C

Protein | binding result
GSK-3β phosphorylated tau isoform 1N3R (natural protein, phosphorylated by GSK-3β; an average of approximately 1 mole phosphate per mole of tau; sites not determined, microtubule associated protein tau, human, isoform 1N3R: with exon 2, without exons 3 and 10; The phosphorylation reaction (with the kinase) was used without further purification; also called phosphorylated 1N3R; 1N3Rp) not shown | binds
tau isoform 1N3R (natural protein, also called unphosphorylated 1N3R) not shown | binds
